In all, about 46,000 compounds went through this assay and about 60 (0.1%) were called active. Not shown: some 3% with an inconclusive outcome. Calls follow the shape of the dose curve; as a rule, active = well fitted inhibition curve with a large enough effect; inconclusive = small, poorly fitted or top-dose-only effect; inactive = no such curve, though single readings can be large or run the other way. The list shows a part of the results.

The nature of this experiment: Primary qHTS assay for Inhibitors of ovarian cancer metastasis using an organotypic tumor microenvironment (TME) model. Also: nearly all actives have a fitted effect of over 65% in size.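 As to activity change, negative = inhibition: plate controls were DMSO wells for no effect and tomatine positive control wells for full effect.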 Conditions: SKOV3ip1-GFP adhesion/invasion on 3D omental model, fluorescence; series mostly up to 45.8 µM; activity change, negative = inhibition: at the top concentration. The essentials:
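qHTS, 4-pt dose (0.36-46 umol/L); SKOV3ip1-GFP, 1,200 cells/well, no FBS; primary omental fibroblast/mesothelial co-culture 48 h pre-grown; 2 h RT + 16 h 37 C; PBS wash, 4% PFA; GFP count 488/509 nm.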
For orientation: qHTS replaces the single test concentration by a dilution series.
Take `Cc1ccc(CCNC(=O)C2CCCN(S(=O)(=O)c3ccc4c(c3)oc(=O)n4C)C2)cc1` (centres undefined): the molecule was classed as inactive.

Regarding `O=C(COc1ccc(F)cc1)OCc1cc(=O)n2nc(C3CC3)sc2n1`, the molecule was classed as inactive.

As to `O=C(Nc1cc(Cl)ccc1O)c1cc2nc(-c3ccc4c(c3)OCO4)cc(C(F)(F)F)n2n1`, the molecule was classed as inactive. As to `CN(C)c1ccc(NC(=O)C2(c3cccs3)CCOCC2)cc1`, the call was inactive. Consider `CCCCOC(=O)c1ccc(Nc2nc3ccc(C)cc3n3cnnc23)cc1`, for which the “activity change, negative = inhibition” value is inactive: -1.31%. Same read-out and setting: as for `CCc1ccccc1NC(=O)COC(=O)c1cn(CC)c2nc(C)ccc2c1=O`, the figure is inactive: 7.42%. Same read-out and setting: for `CCCOc1ccc(Cn2c(=O)sc3ccccc32)cc1` the value was inactive: -1.1%. Take `O=C(CSCc1ccc(F)cc1)N1CCc2c([nH]c3ccccc23)C1c1ccccc1` (centres undefined): the molecule was called inactive.

`CCc1ccc(OC(=O)c2sc3ncn(Cc4cccc(F)c4)c(=O)c3c2C)cc1`: the “activity change, negative = inhibition” value is inactive: 30.8%.

With `O=P(O)(O)C(O)(Cn1ccnc1)P(=O)(O)O`, the “activity change, negative = inhibition” value is inactive: 12.9% [at 23.2 µM]. In the case of `CCCCCNc1nc2c(-c3ccccc3)nnn2c2ccccc12`, the molecule was classed as inactive. With `COc1ccccc1NC(=O)c1c(NC(=O)c2cccs2)sc2c1CCC(C(C)(C)C)C2` (centres undefined), the “activity change, negative = inhibition” value was inactive: 11.3%.

For `Cc1cccc(N2CCN(C(=O)c3ccc4c(c3)N(Cc3cccc(Cl)c3)C(=O)c3ccccc3S4=O)CC2)c1C` (centres undefined), the “activity change, negative = inhibition” value was inactive: -6.9%.

As for `Cc1ccc(-c2nc(SCC(=O)Nc3cc(C)on3)c3c(=O)n(C)c(=O)n(C)c3n2)cc1`, the “activity change, negative = inhibition” value was inactive: -2.88%. As to `O=C(CC(=O)Nc1ccccc1F)Nc1ccc2nc3n(c(=O)c2c1)CCCCC3`, the call was inactive. Regarding `CC(C)Oc1ccc(CNC(=O)c2cnc3sc(N4CCCCCC4)nn3c2=O)cc1`, the “activity change, negative = inhibition” value was inactive: 12.6%. Regarding `COc1ccc2c3n(c(=NC(=O)c4cccnc4)nc2c1OC)CCN3`, the “activity change, negative = inhibition” value was inactive: -8.44%. `C[C@]12CCC3c4ccc(O)cc4CCC3C1CCC2=O` (some centres undefined): the “activity change, negative = inhibition” value was inactive: -6.54%.

In the case of `Cc1ccc(N2CCN(C(=O)Nc3cn(CC(C)C)c(=O)c4ccccc34)CC2)c(C)c1`, the “activity change, negative = inhibition” value is inactive: -4.3%. As to `O=C(NCc1ccc(F)cc1Cl)c1ccc(CSCc2ccccc2Cl)o1`, the “activity change, negative = inhibition” value was inactive: -8.15%. As to `CC(C)CCn1c(=O)c2sccc2n2c(CCCC(=O)Nc3ccc(F)c(Cl)c3)nnc12`, the molecule was called inactive. Take `Cc1ccc(NC(=O)c2cc(-c3cccs3)nc3ccccc23)c(C)c1`: the “activity change, negative = inhibition” value is inactive: 1.88%. For the molecule `CCn1c(C(=O)NCc2ccccc2)cc2sc(Cl)cc21`, the “activity change, negative = inhibition” value is inactive: 2.85%.

As to `COc1ccccc1/C=C(\C#N)C(=O)NCC1CCCO1` (centres undefined), the “activity change, negative = inhibition” value is inactive: -7.99%. As to `COc1cccc(CNC(=O)c2ccc(CN3CC(=O)N4CCCCC4C3=O)cc2)c1` (centres undefined), the outcome was inactive.

With `COC(=O)c1cc2oc3ccccc3c2n1CC(=O)Nc1ccc(C)cc1Cl`, the outcome was inactive. `CCCN(CCC)CCNC(=O)Cn1cnc2sc(C)c(S(=O)(=O)N3CCN(c4ccccc4OC)CC3)c2c1=O`: the “activity change, negative = inhibition” value is inactive: 6.74%. As to `CC#CCn1c(N2CCC[C@@H](N)C2)nc2c1c(=O)n(Cc1nc(C)c3ccccc3n1)c(=O)n2C`, the “activity change, negative = inhibition” value is inactive: -23.2%. Consider `Cc1cc(C)n2nc(CNS(=O)(=O)c3ccc(F)cc3)nc2n1`, for which the “activity change, negative = inhibition” value was inactive: 2.08%. `COc1ccccc1NC(=O)N1CCOc2ccccc21`: the “activity change, negative = inhibition” value was inactive: -1.67%.

With `COc1ccccc1NC(=O)Cn1c(=O)n(Cc2nc(C)no2)c(=O)c2cc3c(cc21)OCO3`, the “activity change, negative = inhibition” value is inactive: -3.37%.

With `CCN(CC)CCNC(=O)c1c(C)[nH]c(C=C2C(=O)Nc3ccc(F)cc32)c1C`, the “activity change, negative = inhibition” value was inactive: -23.8% [at 92.2 µM]. Same read-out and setting: as for `Cc1ccc(CNC(=O)c2ccc(CSCc3c(F)cccc3Cl)o2)cc1`, the figure is inactive: 0.796%. On the same count and under the same terms, as for `CCOc1ccc(/C=C/c2nc(C#N)c(N3CCCCCC3)o2)cc1`, the figure is inactive: -6.67%. Regarding `O=C(CCn1c(=O)c2ccccc2n(Cc2ccc(Cl)cc2)c1=O)NCc1ccc2c(c1)OCO2`, the call was inactive.

With `CCOC(=O)c1[nH]c(C)c(C(=O)NCCc2ccccc2)c1C`, the “activity change, negative = inhibition” value was inactive: 0.941%. On the same count and under the same terms, for `CN(c1ccc(Cl)cc1)S(=O)(=O)c1nnc(NC(=O)c2ccco2)s1` the value was inactive: 22.7%.

In the case of `CCc1ccc(NC(=O)c2cc(CN3CCOCC3)on2)cc1`, the “activity change, negative = inhibition” value is inactive: 2.27%.

On to `CCOc1ccccc1NC(=O)CCS(=O)(=O)c1ccc(OC)cc1`, for which the call was inactive. On to `CCOc1ccc(-n2c(SCC(=O)N3CCCc4ccccc43)nc3c([nH]c4ccccc43)c2=O)cc1`, for which the “activity change, negative = inhibition” value was inactive: -4.3%. With `Cc1cccc(-n2ccnc2SCC(=O)Nc2cc(C(F)(F)F)ccc2Cl)c1`, the outcome was inactive.

For `CCCCC(=O)Nc1cccc(-c2nc3ccccc3s2)c1`, the call was inactive. Take `COc1ccc(CCNC(=O)C(=O)Nc2ccc(C)c(C)c2)cc1OC`: the “activity change, negative = inhibition” value is inactive: -11.4%.

As to `CCn1cc(C(=O)NCc2ccccc2Cl)c(=O)c2cc(S(=O)(=O)N3CCOCC3)ccc21`, the molecule was called inactive. The same measure, in the same setting: as for `CCOC(=O)C1=C(CN(C)Cc2ccccc2)NC(=O)NC1c1ccc(OC(C)C)cc1` (centres undefined), the entry is “inactive”. As for `Cc1ccc(C)c(Oc2c(C(F)(F)F)oc3c(CN4CCN(C)CC4)c(O)ccc3c2=O)c1`, the “activity change, negative = inhibition” value is inactive: 12.2%.

Turning to `COc1ccc(C)cc1NC(=O)Cc1ccc(NC(=O)N2CCCCc3ccccc32)cc1`, the “activity change, negative = inhibition” value is inactive: 2.87%. Same read-out and setting: as for `CC(C)c1ccc(Nc2c(-c3ccsc3)nc3ccc(Cl)cn23)cc1`, the figure is inactive: -4.87%. In the case of `O=C(Nc1ccccc1[N+](=O)[O-])c1csnn1`, the “activity change, negative = inhibition” value was inactive: 13.8%. For `CCC(=O)C1=C(c2ccccc2)N(C(=O)CC)n2c(nnc2C2CCCCC2)S1`, the “activity change, negative = inhibition” value is inactive: 1.07%. Same read-out and setting: as for `O=C(CSc1nc(-c2cccs2)cc(C(F)(F)F)n1)Nc1ccccc1Cl`, the figure is inactive: -0.707%; as for `O=C(Nc1ccc2nc(SCC(=O)N3CCc4ccccc43)sc2c1)c1ccc(Cl)cc1`, inactive: -26.1%. With `CCCOc1ccc(CNC(=O)c2cc3oc4ccccc4c3n2C)cc1`, the molecule was classed as inactive. `COC(=O)c1c(SC)nc2ccccc2c1OCc1cc(C)ccc1C`: the “activity change, negative = inhibition” value was inactive: -0.75%. The same measure, in the same setting: for `Cc1ccc(CNC(=O)c2ccc(NC(=O)c3nsc4ccccc34)cc2)cc1` the value was inactive: -7.56%; for `CCOc1ccccc1NC(=O)C(=O)NCC(c1cccnc1)N1CCN(c2ccccc2)CC1` (centres undefined), inactive: 13.4%; for `Cc1cccc(C(=O)Nc2sc3c(c2C(=O)Nc2ccccc2)CCC3)c1`, inactive: 2.86%.

`Cc1ccc(NC(=O)CN2C(=O)C(c3ccc(F)cc3)=NC2(C)C)c(C)c1`: the “activity change, negative = inhibition” value was inactive: 3.95%.

As for `CCOc1ccc(CCNC(c2nnc(-c3ccccc3)o2)c2ccccc2Cl)cc1OCC` (centres undefined), the “activity change, negative = inhibition” value is inactive: -9.24%. Still for that read-out and setting: for `CCCN(C(=O)Cn1nc(Cc2cccnc2)c2ccccc2c1=O)c1ccc(C(C)C)cc1` the value was inactive: -1.51%; for `CCc1ccccc1NC(=O)Cn1c(=O)oc2ccccc21`, inactive: 11.3%; for `CC1=C(C(=O)OC2CCCCCC2)C(c2c(Cl)cccc2Cl)CC(=O)N1` (centres undefined), inactive: -20.5%. The same measure, in the same setting: for `CCOc1ccc(C2CC(=O)c3c([nH]c(C(=O)OC4CCCCCC4)c3C)C2)cc1` (centres undefined) the value was inactive: 0.0887%. As for `Cc1ccc(NC(=O)[C@H](Cc2ccccc2)N2Cc3ccccc3C2=O)cc1F`, the molecule was classed as inactive.

These data come from PubChem BioAssay AID1963576 (National Center for Advancing Translational Sciences (NCATS), 2024).
